Publication PMC12136788
Some of the results follow.

T1: UNK ZnF1-6 (called full-length) (human, UniProt Q9C0B0 30-357)
T1 sequence: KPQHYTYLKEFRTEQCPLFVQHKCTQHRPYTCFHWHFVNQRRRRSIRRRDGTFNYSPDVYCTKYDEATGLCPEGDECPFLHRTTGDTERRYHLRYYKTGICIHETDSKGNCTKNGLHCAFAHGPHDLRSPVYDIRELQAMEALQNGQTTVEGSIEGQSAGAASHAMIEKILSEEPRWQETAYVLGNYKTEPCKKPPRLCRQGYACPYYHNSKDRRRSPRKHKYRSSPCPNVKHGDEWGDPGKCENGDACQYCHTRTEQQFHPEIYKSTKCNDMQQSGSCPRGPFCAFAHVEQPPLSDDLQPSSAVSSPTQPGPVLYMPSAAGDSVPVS

B1: ENSG00000092929:stop:overlap|stop_codon|ENSG00000092929|stop_codon|NA|stop_codon (ssRNA)
RNA: GGGAGUUCUACAGUCCGACGAUCUGAGGCUGCGGCGGCACCGGGCCAAGCAGGCCUCCCAGCAUGCCUUGCGGCCGGCACCGUAGCCGUAGAGGUUUGCGGUGGGGCUGGGUCCCCGGUGGGGACUUGCAAGGGCUUUCCUGUCAACAGAGGAUUGAGCAUCA
B2: chr3:48467913:48467962:-|3pUTR|ENSG00000164054|msi1_unk|FALSE|overlapping (ssRNA)
RNA: GGGAGUUCUACAGUCCGACGAUCCCCAGACAUGAAUACCUCGUGUUCCUCCUCCCUCUAUUACUGUUUCACCAGAGCUGUCUUAGCUCAAAUCUGUUGUGUUUCUGAGUCUAGGGUCUGUACACUUGUUUAUAAUAAAUGCAACAACAGAGGAUUGAGCAUCA
B3: chr12:122865329:122867115:-|three_prime_utr|ENSG00000139722|control|control|control (ssRNA)
RNA: GGGAGUUCUACAGUCCGACGAUCUGGAGGUCCGCUCUGUGCCAAGGGCUCUGGGGCCCUGGGCCAGCGUGUCUGUCUGAUUUUAGAACUGUAGGUCAGUGGUGAGUAGUAGGAGCCCAGGCUUUGGGCAUCAAGGCAGUUGUGCAACAGAGGAUUGAGCAUCA
B4: ENSG00000166086:stop:overlap|stop_codon|ENSG00000166086|stop_codon|NA|stop_codon (ssRNA)
RNA: GGGAGUUCUACAGUCCGACGAUCUCCUGCUGCUGCUUUUCAGGGAGUCAAGUCUAGUCUGCUUUCCAAGGCUGCAUUCUAAGUAGUGAAGCCUCAACUUCAUAUUUACCUAAAGCAGGACACCACACUCUUCCCCUGGCAGCCCAACAGAGGAUUGAGCAUCA
B5: chr2:128192036:128192329:+|3pUTR|ENSG00000136731|msi1|FALSE|unique (ssRNA)
RNA: GGGAGUUCUACAGUCCGACGAUCAUGUCCUGGUGUCACUCAUUGCCUCUUAUCUGUCGCCAUUCUAAUAUAAGUCAGCUUAAUAGUUGACUCUGAAUAAUGCAAAACCCAGCUUGCUUCCAGAAUGGCCUAGGACCCUCCUCCCAACAGAGGAUUGAGCAUCA
B6: chr4:186619803:186619904:-|CDS|ENSG00000083857|msi1|FALSE|unique (ssRNA)
RNA: GGGAGUUCUACAGUCCGACGAUCAGACGGAGACCCUUUCAGCCAGUUCACUAUUAACUUCAAUACUGGAGUUAUCAAUGUCAUAGCUCCUCUGGACUUUGAGGCCCACCCGGCAUAUAAGCUGAGCAUACGCGCAACUGACUCCAACAGAGGAUUGAGCAUCA
B7: ENSG00000092201:stop:overlap|stop_codon|ENSG00000092201|stop_codon|NA|stop_codon (ssRNA)
RNA: GGGAGUUCUACAGUCCGACGAUCUUCCCCGCGUGCCAGCCUUGGUCAUGCAUAGCAGCACCUCUCGCAGUCUCUUCCCGCCCUAGAAGAGGCAACAUCCUUCCCUCCUACUCCGUGGUCACGUCUUGCUGCCCUCCCCUGCCGCAACAGAGGAUUGAGCAUCA
B8: ENSG00000077092:stop:overlap|stop_codon|ENSG00000077092|stop_codon|NA|stop_codon (ssRNA)
RNA: GGGAGUUCUACAGUCCGACGAUCUGCUGAAGGCCGCCUGCCUGGACAUCCUGACCGCCAGGACCUUGAGGAACCGACAAAAGUAGAUAAGCUACAAGAACCAUUGCUGGAAGCACUAAAAAUUUAUAUCAGAAAAAGACGACCCAACAGAGGAUUGAGCAUCA
B9: chr12:68839811:68839877:+|CDS_3pUTR|ENSG00000135679|msi1_unk|FALSE|overlapping (ssRNA)
RNA: GGGAGUUCUACAGUCCGACGAUCAUAAGCCCUGCCCAGUAUGUAGACAACCAAUUCAAAUGAUUGUGCUAACUUAUUUCCCCUAGUUGACCUGUCUAUAAGAGAAUUAUAUAUUUCUAACUAUAUAACCCUAGGAAUUUAGACCAACAGAGGAUUGAGCAUCA
B10: chr10:122937732:122937852:-|CDS|ENSG00000119965|unk|FALSE|unique (ssRNA)
RNA: GGGAGUUCUACAGUCCGACGAUCGUAAGUGACAACUCAAAUAUACCCAACUCCGAGUUGCUGCCUUUUCUCCAGAAUUUAUGUAGUCAAGUUAAUCAUCUCCAUGUGGGAAAUAAGACCGAGUGUCAGGAAAACAUCACCAAGCAACAGAGGAUUGAGCAUCA
B11: ENSG00000198589:be:win_2151|CDS|ENSG00000198589|bound_else_gene|NA|bound_elsewhere_windowed (ssRNA)
RNA: GGGAGUUCUACAGUCCGACGAUCAAGGAAUGGGUUACGUGUUAUCUACAAACUUCUGGCAUCGAAAAGUGAAGGAAUCAGGGUACAAGCUCUUAAGGCAAUGGGUUAUUUUUUAAAACAUCUGGCCCCAAAGAGGAAAGCAGACAACAGAGGAUUGAGCAUCA
B12: chr3:69085097:69085224:+|CDS|ENSG00000144746|unk|total|mutant (ssRNA)
RNA: GGGAGUUCUACAGUCCGACGAUCGGGUUCCGAUCGCUUUGCCCGGCCGGACUUCAGGGACAUUUCCAAAUGGAACAACCGCGCCGUGAGCAACCUGCUCUAUUACCAGACCAACUACCUGGUGGUGGCUGCCAUGAUGAUUUCCAACAGAGGAUUGAGCAUCA
B13: ENSG00000198589:be:win_51|CDS|ENSG00000198589|bound_else_gene|NA|bound_elsewhere_windowed (ssRNA)
RNA: GGGAGUUCUACAGUCCGACGAUCCGGGGGAGGUGGAGGGAGAGAAGAAACCCCUACUGAAGGGGGUGCAUUGUCUCUGAAACCAGGGCUCCCCAUCAGGGGCAUCAGAAUGAAAUUUGCCGUGUUGACCGGUUUGGUUGAAGUCAACAGAGGAUUGAGCAUCA
B14: ENSG00000186448:stop:overlap|stop_codon|ENSG00000186448|stop_codon|NA|stop_codon (ssRNA)
RNA: GGGAGUUCUACAGUCCGACGAUCUUGAGGAAUUCUCUUGGCUACAAAACACCAAUGAGUCCAAGAUUGAGAUUCAGAAAAUCUAGUGUCAUAUGUAAAAUGGAAUAGAAUCCCUGCCUACUUAAGUAACUGUUGGACAAAUGACAACAGAGGAUUGAGCAUCA

The binders below were run against T1, UNK ZnF1-6 (called full-length) (assay: nsRBNS (natural sequence RNA bind-n-seq); RBNS binding buffer (assumed for nsRBNS): 25 mM Tris pH 7.5, 150 mM KCl, 3 mM MgCl2, 0.01% Triton X-100, 500 ug/ml BSA, 20 U/ml SUPERase-In, 4 C; UNK is unkempt and MSI1 is Musashi-1; names of the RNAs are library labels; protein concentration not given here; high values mean tight binding).
For B1, the binding signal was 0.698 enrichment R.
For B2, the binding signal was 0.571 enrichment R.
B3 gave a binding signal of 1.28 enrichment R.
With B4 the binding signal was 0.638 enrichment R.
For B5, the binding signal was 0.601 enrichment R.
Binder B6 has a binding signal of 0.531 enrichment R.
Binder B7 has a binding signal of 0.859 enrichment R.
In the case of B8, the binding signal is reported as 0.881 enrichment R.
With B9 the binding signal was 1.75 enrichment R.
In the case of B10, the binding signal is reported as 0.553 enrichment R.
For B11, the binding signal was 0.693 enrichment R.
B12 gave a binding signal of 0.471 enrichment R.
With B13 the binding signal was 0.759 enrichment R.
Work on B14 yielded a binding signal of 0.754 enrichment R.
